Results reported in the supplement of paper PMC11876631.
± gives the standard deviation of the averaged measurements. Laboratory Escherichia coli strains with one amino-acid change in an essential protein, pooled on minimal glucose agar with carbenicillin or gentamicin at twice the control MIC (plus kanamycin and chloramphenicol for the plasmids), 48 h. Fold change of barcode share against drug-free plates; higher = less susceptible. Active = above 20 in both replicates (the paper's putatively resistant). '<' = one read or none on drug, '>' = one read or none on a drug-free plate. Shares are relative, so most strains fall below 1 when a few take over. Listed are strains with at least 15 reads on both drug-free plates, and hits; most hits rest on fewer reference reads. Replicate rank correlation about 0.5. Edits are read from barcodes.

Target: Escherichia coli (laboratory strain)
Assay: barcode share on antibiotic plates over drug-free plates; higher = less susceptible
Procedure: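 A pool of E. coli strains, each edited to carry one amino-acid change in an essential protein, was grown for 48 h on minimal glucose agar with or without antibiotic; strain barcodes were sequenced; mean of two replicates.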

[1] = antibiotic: carbenicillin, 2× MIC (3.1 µg/mL)
[2] = antibiotic: gentamicin, 2× MIC (MIC 0.45 µg/mL)

| Protein | fold change of barcode share [1] | fold change of barcode share [2] |
| --- | --- | --- |
| plsC F104A (protein) MLYIFRLIITVIYSILVCVFGSIYCLFSPRNPKHVATFGHMFGRLAPLFGLKVECRKPTDAESYGNAIYIANHQNNYDMVTASNIVQPPTVTVGKKSLLWIPFAGQLYWLTGNLLIDRNNRTKAHGTIAEVVNHFKKRRISIWMFPEGTRSRGRGLLPFKTGAFHAAIAAGVPIIPVCVSTTSNKINLNRLHNGLVIVEMLPPIDVSQYGKDQVRELAAHCRSIMEQKIAELDKEVAEREAAGKV | 0.309 ± 0.11 | 0.00743 ± 0.0023 |
| plsC F145D (protein) MLYIFRLIITVIYSILVCVFGSIYCLFSPRNPKHVATFGHMFGRLAPLFGLKVECRKPTDAESYGNAIYIANHQNNYDMVTASNIVQPPTVTVGKKSLLWIPFFGQLYWLTGNLLIDRNNRTKAHGTIAEVVNHFKKRRISIWMDPEGTRSRGRGLLPFKTGAFHAAIAAGVPIIPVCVSTTSNKINLNRLHNGLVIVEMLPPIDVSQYGKDQVRELAAHCRSIMEQKIAELDKEVAEREAAGKV | 196 [active] | – |
| plsC I142A (protein) MLYIFRLIITVIYSILVCVFGSIYCLFSPRNPKHVATFGHMFGRLAPLFGLKVECRKPTDAESYGNAIYIANHQNNYDMVTASNIVQPPTVTVGKKSLLWIPFFGQLYWLTGNLLIDRNNRTKAHGTIAEVVNHFKKRRISAWMFPEGTRSRGRGLLPFKTGAFHAAIAAGVPIIPVCVSTTSNKINLNRLHNGLVIVEMLPPIDVSQYGKDQVRELAAHCRSIMEQKIAELDKEVAEREAAGKV | 0.377 ± 0.086 | < 0.00867 |
| plsC I142Q (protein) MLYIFRLIITVIYSILVCVFGSIYCLFSPRNPKHVATFGHMFGRLAPLFGLKVECRKPTDAESYGNAIYIANHQNNYDMVTASNIVQPPTVTVGKKSLLWIPFFGQLYWLTGNLLIDRNNRTKAHGTIAEVVNHFKKRRISQWMFPEGTRSRGRGLLPFKTGAFHAAIAAGVPIIPVCVSTTSNKINLNRLHNGLVIVEMLPPIDVSQYGKDQVRELAAHCRSIMEQKIAELDKEVAEREAAGKV | 194 [active] | – |
| plsC F145Q (protein) MLYIFRLIITVIYSILVCVFGSIYCLFSPRNPKHVATFGHMFGRLAPLFGLKVECRKPTDAESYGNAIYIANHQNNYDMVTASNIVQPPTVTVGKKSLLWIPFFGQLYWLTGNLLIDRNNRTKAHGTIAEVVNHFKKRRISIWMQPEGTRSRGRGLLPFKTGAFHAAIAAGVPIIPVCVSTTSNKINLNRLHNGLVIVEMLPPIDVSQYGKDQVRELAAHCRSIMEQKIAELDKEVAEREAAGKV | 3.22 ± 2.5 | 0.0121 ± 0.011 |
| plsC F104Q (protein) MLYIFRLIITVIYSILVCVFGSIYCLFSPRNPKHVATFGHMFGRLAPLFGLKVECRKPTDAESYGNAIYIANHQNNYDMVTASNIVQPPTVTVGKKSLLWIPFQGQLYWLTGNLLIDRNNRTKAHGTIAEVVNHFKKRRISIWMFPEGTRSRGRGLLPFKTGAFHAAIAAGVPIIPVCVSTTSNKINLNRLHNGLVIVEMLPPIDVSQYGKDQVRELAAHCRSIMEQKIAELDKEVAEREAAGKV | 140 [active] | – |
| plsC F104W (protein) MLYIFRLIITVIYSILVCVFGSIYCLFSPRNPKHVATFGHMFGRLAPLFGLKVECRKPTDAESYGNAIYIANHQNNYDMVTASNIVQPPTVTVGKKSLLWIPFWGQLYWLTGNLLIDRNNRTKAHGTIAEVVNHFKKRRISIWMFPEGTRSRGRGLLPFKTGAFHAAIAAGVPIIPVCVSTTSNKINLNRLHNGLVIVEMLPPIDVSQYGKDQVRELAAHCRSIMEQKIAELDKEVAEREAAGKV | 0.306 ± 0.042 | 0.00602 ± 0.0037 |
| plsC I142W (protein) MLYIFRLIITVIYSILVCVFGSIYCLFSPRNPKHVATFGHMFGRLAPLFGLKVECRKPTDAESYGNAIYIANHQNNYDMVTASNIVQPPTVTVGKKSLLWIPFFGQLYWLTGNLLIDRNNRTKAHGTIAEVVNHFKKRRISWWMFPEGTRSRGRGLLPFKTGAFHAAIAAGVPIIPVCVSTTSNKINLNRLHNGLVIVEMLPPIDVSQYGKDQVRELAAHCRSIMEQKIAELDKEVAEREAAGKV | 0.289 ± 0.12 | < 0.0101 |
| plsC F145A (protein) MLYIFRLIITVIYSILVCVFGSIYCLFSPRNPKHVATFGHMFGRLAPLFGLKVECRKPTDAESYGNAIYIANHQNNYDMVTASNIVQPPTVTVGKKSLLWIPFFGQLYWLTGNLLIDRNNRTKAHGTIAEVVNHFKKRRISIWMAPEGTRSRGRGLLPFKTGAFHAAIAAGVPIIPVCVSTTSNKINLNRLHNGLVIVEMLPPIDVSQYGKDQVRELAAHCRSIMEQKIAELDKEVAEREAAGKV | 0.314 ± 0.0051 | 0.00516 ± 0.0041 |
| ppc V134A (protein) MNEQYSALRSNVSMLGKVLGETIKDALGEHILERVETIRKLSKSSRAGNDANRQELLTTLQNLSNDELLPVARAFSQFLNLANTAEQYHSISPKGEAASNPEVIARTLRKLKNQPELSEDTIKKAVESLSLELALTAHPTEITRRTLIHKMVEVNACLKQLDNKDIADYEHNQLMRRLRQLIAQSWHTDEIRKLRPSPVDEAKWGFAVVENSLWQGVPNYLRELNEQLEENLGYKLPVEFVPVRFTSWMGGDRDGNPNVTADITRHVLLLSRWKATDLFLKDIQVLVSELSMVEATPELLALVGEEGAAEPYRYLMKNLRSRLMATQAWLEARLKGEELPKPEGLLTQNEELWEPLYACYQSLQACGMGIIANGDLLDTLRRVKCFGVPLVRIDIRQESTRHTEALGELTRYLGIGDYESWSEADKQAFLIRELNSKRPLLPRNWQPSAETREVLDTCQVIAEAPQGSIAAYVISMAKTPSDVLAVHLLLKEAGIGFAMPVAPLFETLDDLNNANDVMTQLLNIDWYRGLIQGKQMVMIGYSDSAKDAGVMAASWAQYQAQDALIKTCEKAGIELTLFHGRGGSIGRGGAPAHAALLSQPPGSLKGGLRVTEQGEMIRFKYGLPEITVSSLSLYTGAILEANLLPPPEPKESWRRIMDELSVISCDVYRGYVRENKDFVPYFRSATPEQELGKLPLGSRPAKRRPTGGVESLRAIPWIFAWTQNRLMLPAWLGAGTALQKVVEDGKQSELEAMCRDWPFFSTRLGMLEMVFAKADLWLAEYYDQRLVDKALWPLGKELRNLQEEDIKVVLAIANDSHLMADLPWIAESIQLRNIYTDPLNVLQAELLHRSRQAEKEGQEPDPRVEQALMVTIAGIAAGMRNTG | 0.548 ± 0.17 | < 0.00487 |
| ppc V134Q (protein) MNEQYSALRSNVSMLGKVLGETIKDALGEHILERVETIRKLSKSSRAGNDANRQELLTTLQNLSNDELLPVARAFSQFLNLANTAEQYHSISPKGEAASNPEVIARTLRKLKNQPELSEDTIKKAVESLSLELQLTAHPTEITRRTLIHKMVEVNACLKQLDNKDIADYEHNQLMRRLRQLIAQSWHTDEIRKLRPSPVDEAKWGFAVVENSLWQGVPNYLRELNEQLEENLGYKLPVEFVPVRFTSWMGGDRDGNPNVTADITRHVLLLSRWKATDLFLKDIQVLVSELSMVEATPELLALVGEEGAAEPYRYLMKNLRSRLMATQAWLEARLKGEELPKPEGLLTQNEELWEPLYACYQSLQACGMGIIANGDLLDTLRRVKCFGVPLVRIDIRQESTRHTEALGELTRYLGIGDYESWSEADKQAFLIRELNSKRPLLPRNWQPSAETREVLDTCQVIAEAPQGSIAAYVISMAKTPSDVLAVHLLLKEAGIGFAMPVAPLFETLDDLNNANDVMTQLLNIDWYRGLIQGKQMVMIGYSDSAKDAGVMAASWAQYQAQDALIKTCEKAGIELTLFHGRGGSIGRGGAPAHAALLSQPPGSLKGGLRVTEQGEMIRFKYGLPEITVSSLSLYTGAILEANLLPPPEPKESWRRIMDELSVISCDVYRGYVRENKDFVPYFRSATPEQELGKLPLGSRPAKRRPTGGVESLRAIPWIFAWTQNRLMLPAWLGAGTALQKVVEDGKQSELEAMCRDWPFFSTRLGMLEMVFAKADLWLAEYYDQRLVDKALWPLGKELRNLQEEDIKVVLAIANDSHLMADLPWIAESIQLRNIYTDPLNVLQAELLHRSRQAEKEGQEPDPRVEQALMVTIAGIAAGMRNTG | > 28.5 [active] | – |
| ppc L178A (protein) MNEQYSALRSNVSMLGKVLGETIKDALGEHILERVETIRKLSKSSRAGNDANRQELLTTLQNLSNDELLPVARAFSQFLNLANTAEQYHSISPKGEAASNPEVIARTLRKLKNQPELSEDTIKKAVESLSLELVLTAHPTEITRRTLIHKMVEVNACLKQLDNKDIADYEHNQLMRRARQLIAQSWHTDEIRKLRPSPVDEAKWGFAVVENSLWQGVPNYLRELNEQLEENLGYKLPVEFVPVRFTSWMGGDRDGNPNVTADITRHVLLLSRWKATDLFLKDIQVLVSELSMVEATPELLALVGEEGAAEPYRYLMKNLRSRLMATQAWLEARLKGEELPKPEGLLTQNEELWEPLYACYQSLQACGMGIIANGDLLDTLRRVKCFGVPLVRIDIRQESTRHTEALGELTRYLGIGDYESWSEADKQAFLIRELNSKRPLLPRNWQPSAETREVLDTCQVIAEAPQGSIAAYVISMAKTPSDVLAVHLLLKEAGIGFAMPVAPLFETLDDLNNANDVMTQLLNIDWYRGLIQGKQMVMIGYSDSAKDAGVMAASWAQYQAQDALIKTCEKAGIELTLFHGRGGSIGRGGAPAHAALLSQPPGSLKGGLRVTEQGEMIRFKYGLPEITVSSLSLYTGAILEANLLPPPEPKESWRRIMDELSVISCDVYRGYVRENKDFVPYFRSATPEQELGKLPLGSRPAKRRPTGGVESLRAIPWIFAWTQNRLMLPAWLGAGTALQKVVEDGKQSELEAMCRDWPFFSTRLGMLEMVFAKADLWLAEYYDQRLVDKALWPLGKELRNLQEEDIKVVLAIANDSHLMADLPWIAESIQLRNIYTDPLNVLQAELLHRSRQAEKEGQEPDPRVEQALMVTIAGIAAGMRNTG | 1.24 ± 1.1 | < 0.00801 |
